Assay results taken from PubChem BioAssay AID2147 (National Center for Advancing Translational Sciences (NCATS), 2009).
“And” between values parts separate entries of the source, which are not always exact repeats. Identical values can stand only once. The whole screen tested about 230,000 compounds, of which about 3,600 (1.6%) were called active. Inconclusive means that the source gave no clear call. Such entries were picked first, then a sample of the others. The call rests on the fitted dose curve; in most records, active means well fitted inhibition curve with a large enough effect (not every such curve was filed as active); inconclusive means small, poorly fitted or top-dose-only effect, or another doubt; inactive means no such curve, though single readings can be large or run the other way. Potencies beside an inconclusive call are fits to weak or partial responses and may not hold up.

molecular target: Lysine-specific demethylase 4E (Homo sapiens) (UniProt B2RXH2); experiment: qHTS Assay for Inhibitors of Human Jumonji Domain Containing 2E (JMJD2E); conditions: JMJD2E catalytic domain, FDH-coupled NADH fluorescence (FDH is formaldehyde dehydrogenase); series mostly up to 57.1 µM
UniProt B2RXH2, sequence (B2RXH2 whole entry, looked up, the tested form may be a part): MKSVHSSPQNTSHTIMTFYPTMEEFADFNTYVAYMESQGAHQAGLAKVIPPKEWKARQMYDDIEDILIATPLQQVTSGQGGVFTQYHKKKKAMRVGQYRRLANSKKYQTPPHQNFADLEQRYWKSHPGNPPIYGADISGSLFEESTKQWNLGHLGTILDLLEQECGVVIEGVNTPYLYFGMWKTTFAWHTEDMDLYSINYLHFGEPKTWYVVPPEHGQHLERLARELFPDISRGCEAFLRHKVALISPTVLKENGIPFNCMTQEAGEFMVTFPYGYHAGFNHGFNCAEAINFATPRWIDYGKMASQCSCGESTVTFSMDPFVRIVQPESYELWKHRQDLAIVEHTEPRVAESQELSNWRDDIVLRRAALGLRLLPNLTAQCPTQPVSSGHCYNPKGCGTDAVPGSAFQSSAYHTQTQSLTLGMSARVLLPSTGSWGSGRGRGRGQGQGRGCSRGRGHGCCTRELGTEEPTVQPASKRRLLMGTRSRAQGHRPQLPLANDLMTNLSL
Further: nearly all actives have a fitted effect of over 50% in size.
Potency means the concentration at half of the fitted maximal effect; tags describe the fitted curve by direction and shape.

SMILES | Potency
COc1ccc(Cl)cc1Nc1nc(-c2sc(NC(=O)c3ccco3)nc2C)cs1 | inconclusive: 28.2 µM [inhibitor, single point]
CC1=C(C(=O)Nc2ccccc2C(F)(F)F)C(c2ccc(C)s2)NC(=S)N1 (stereo unspecified) | inactive
C/C(=C\C[Si](C)(C)C)CC[C@H](O)C1=CCCCC1=O | inactive
COc1ccc(S(=O)(=O)N(CC(=O)O)c2ccccn2)cc1 | inconclusive: 0.794 µM [inhibitor, full curve]
Cc1ccc2nc(N/C(=N/S(=O)(=O)c3ccc(F)cc3F)c3ccccc3)sc2c1 | inconclusive: 35.5 µM [inhibitor, single point]
COC(=O)c1c(O)cc(=O)n2c1CCCCC2 | inactive
O=C(c1ccc(-n2cccc2)cc1)N1CCN(Cc2ccccc2)CC1 | inactive
COc1ccc(C(=O)N/N=C/c2c(CO)cnc(C)c2O)cc1 | inconclusive: 31.6 µM [inhibitor, partial curve]
Cc1nc(C)c(/C(O)=C\c2nc3ccc([N+](=O)[O-])cc3oc2=O)o1 | active: 20 µM
Cc1ccc(C(=O)N2N=C3c4ccccc4S(=O)(=O)N3[C@H]2N(C)C)cc1 | inconclusive: 28.2 µM [inhibitor, partial curve]
COc1cc(Cl)c(C)cc1NC(=S)NN | inconclusive: 4.47 µM [inhibitor, full curve, poor fit]
O=S(=O)(Cc1cc(Oc2ccccc2)nc(-c2ccccc2)n1)c1ccccc1 | inactive
CCOC(=O)c1c(C)c(C(=O)NCc2ccc3c(c2)OCO3)c(C)n1CC | inactive
CCN(CC)S(=O)(=O)c1cc(NC(=O)Cn2cnc3ccccc3c2=O)ccc1C | inactive
COc1ccc(S(=O)(=O)Nc2ccc(-n3cccc3)cc2)cc1 | inconclusive: 35.5 µM [inhibitor, single point]
Cn1nc(-c2ccc(Cl)cc2)c2cc(C(=O)NCCCN3CCOCC3)sc21 | inconclusive: 31.6 µM [inhibitor, partial curve]
COc1ccc(S(=O)(=O)Nc2ccc(O)c(Sc3ncn[nH]3)c2)cc1 | inactive
O=C(Oc1cccc(Nc2ncnc3ccccc23)c1)c1ccccc1Cl | inconclusive: 39.8 µM [inhibitor, single point]
CNC(=S)N/N=C/c1c(C)nn(-c2ccccc2)c1Cl | inconclusive: 39.8 µM [inhibitor, single point]
Cc1cc(C)c(OCCCCNCc2ccccc2)c(Cl)c1 | inactive
O=Cc1ccc(N2CCCCC2)cc1 | inconclusive: 39.8 µM [inhibitor, single point]
Cc1ccc2cc(CN(Cc3ccco3)C(=O)NCc3ccccc3)c(=O)[nH]c2c1C | inconclusive: 25.1 µM [inhibitor, single point]
Cc1ccc(C(=O)C(c2ccccc2)N2Cc3ccccc3C2=N)cc1 (stereo unspecified) | active: 6.31 µM
Cc1ccc(S(=O)(=O)Nc2ccc(C(=O)OCC(=O)N(CCC#N)c3ccccc3)cc2)cc1C | inactive

SMILES | Potency
O=C(CN1CCN(c2ccc(Cl)cc2)CC1)c1ccc2c(c1)OCO2 | inconclusive: 22.4 µM [inhibitor, single point]
O=C(O)c1cccc(N/N=C/c2cn(-c3ccccc3)nc2-c2cccs2)c1 | inconclusive: 31.6 µM [inhibitor, single point]
COC(=O)Cc1cc(=O)oc2cc(O)ccc12 | inconclusive: 28.2 µM [inhibitor, partial curve]
C/C=N/NC(=O)CCNC(=O)c1ccccc1 | inactive
O=C(O)c1cccc(NC(=O)C2C3C=CC(C3)C2C(=O)O)c1 (stereo unspecified) | inconclusive: 28.2 µM [inhibitor, partial curve]
CCC(C)NC(=O)CO/N=C/c1ccc(C(=O)OC)cc1 (stereo unspecified) | inactive
COc1ccc(C(=O)N/C(=C\c2cccs2)c2nc3ccccc3[nH]2)cc1OC | inconclusive: 22.4 µM [inhibitor, partial curve]
COc1cc(C(c2c(C)[nH][nH]c2=O)c2c(C)[nH][nH]c2=O)ccc1OC(C)C | inactive
CCOc1ccc(-c2nnn(CC(=O)c3cc(OC)ccc3OC)n2)cc1 | inconclusive: 28.2 µM [inhibitor, partial curve]
O=C(O)c1cc(-c2ccc3c(c2)OCO3)nc2ccc(Br)cc12 | inconclusive: 20 µM [inhibitor, partial curve]
COc1c(C)cccc1C(=O)NC(=S)Nc1cccc2nsnc12 | inactive
COc1ccc(N2CCN(C(=O)CNC(=O)c3cn(-c4ccccc4OC)c(=O)c4ccccc34)CC2)cc1 | inconclusive: 39.8 µM [inhibitor, single point]
CCCOc1cccc(NC(=O)OC2CCN(C)CC2)c1 | inactive
Cc1cccc(CNc2cc(-c3ccc(C(=O)N(C)C)cc3)ncn2)c1 | inconclusive: 31.6 µM [inhibitor, partial curve]
Cc1ccc(S(=O)(=O)N2CCCC(C(=O)Nc3ccc(NC(=O)c4ccccn4)cc3)C2)cc1 (stereo unspecified) | inconclusive: 35.5 µM [inhibitor, single point]
Cc1cc(/C=N\NC(=O)COc2cccc3cccnc23)c(C)n1-c1ccc(Br)cc1 | inconclusive: 28.2 µM [inhibitor, single point]
COc1cc2ccc(=O)oc2cc1O | inactive and inconclusive: 631 nM [inhibitor, partial curve, poor fit] and inconclusive: 28.2 µM [inhibitor, partial curve]
O=S(=O)(Nc1nc2ccccc2nc1NCC1CCCO1)c1ccccc1 (stereo unspecified) | inconclusive: 22.4 µM [inhibitor, partial curve]
O=c1[nH]c2ccccc2nc1-c1ccccc1 | inconclusive: 31.6 µM [inhibitor, partial curve]
Cn1c(N)c(C(=O)COC(=O)COc2ccccc2C#N)c(=O)n(C)c1=O | inactive
COc1ccc(Br)cc1CN1CCN(C(=O)c2ccc(F)cc2)CC1 | inconclusive: 31.6 µM [inhibitor, single point]
COc1cc(OC)c2c(c1Cl)O[C@@]1(C2=O)[C@H](C)CC(=O)C[C@@H]1OC | inconclusive: 14.1 µM [inhibitor, partial curve]
COc1ccc(CCNC(=O)c2cnn3ccccc23)c(OC)c1OC | inconclusive: 28.2 µM [inhibitor, partial curve]
COc1ccc(OC)c(NC(=O)c2nnn(CCc3ccccc3)c2N)c1 | inconclusive: 35.5 µM [inhibitor, single point]

SMILES | Potency
COc1ccc(C2c3ccc4ccccc4c3Oc3ncn(CCCO)c(=N)c32)cc1 (stereo unspecified) | inconclusive: 35.5 µM [inhibitor, partial curve]
O=C(NC(c1ccccc1)c1ccccc1)c1cccc(S(=O)(=O)NCc2ccccc2)c1 | inactive
COc1ncccc1-c1nnn(-c2ccc(C)cc2)n1 | inactive
Cc1ccc(O)c(C2=NNC(c3ccc(Cl)cc3)C2)c1 (stereo unspecified) | inconclusive: 28.2 µM [inhibitor, single point]
CC(=O)c1ccc(N2CCN(S(=O)(=O)c3c(C)[nH]c(=O)[nH]c3=O)CC2)cc1 | inconclusive: 39.8 µM [inhibitor, single point]
CCOC(=O)c1cc2sccc2n1CC(=O)Nc1ccc(OC)c(OC)c1 | inconclusive: 39.8 µM [inhibitor, single point]
O=C(CSc1nnc(-c2cccs2)o1)N1CCOCC1 | inactive
O=C(CSc1nnc2ccccn12)Nc1ccccc1C(=O)O | inconclusive: 39.8 µM [inhibitor, single point]
COc1ccccc1CN1CCNC(=O)C1CC(=O)O (stereo unspecified) | inconclusive: 31.6 µM [inhibitor, partial curve]
NC(=S)N/N=C1\CC(n2nnnc2-c2ccccc2)C2COC1O2 (stereo unspecified) | inactive
Fc1ccc(C2c3[nH]c4ccccc4c3CCN2Cc2ccoc2)cc1 (stereo unspecified) | inconclusive: 28.2 µM [inhibitor, single point]
Cc1cccc(CCN(Cc2cc3cccc(C)c3[nH]c2=O)C(=O)N2CCOCC2)c1 | inconclusive: 39.8 µM [inhibitor, single point]
COc1cccc2c(=O)n(CC(=O)Nc3ccccc3F)ccc12 | inconclusive: 31.6 µM [inhibitor, partial curve]
O=C(NCC1CCCO1)c1c(O)c2cccc3c2n(c1=O)CC3 (stereo unspecified) | inconclusive: 31.6 µM [inhibitor, partial curve]
S=c1[nH]nc(-c2ccc(Br)o2)n1Cc1ccccc1 | inactive
CCOC(=O)c1cc2c(=O)n3ccccc3nc2n(CCCOC)c1=NC(=O)C(C)(C)C | inconclusive: 7.94 µM [inhibitor, full curve]
Cc1[nH]n(-c2ccccc2)c(=O)c1C=Nc1ccc(S(=O)(=O)N=C(N)N)cc1 | inactive
CCn1nc(NC(=O)c2ccco2)c2cc3ccc(C)cc3nc21 | inconclusive: 31.6 µM [inhibitor, partial curve]
Cc1ccc(-n2ncc3c(N4CCCC4)ncnc32)c(C)c1 | inconclusive: 0.0025 µM [inhibitor, full curve, poor fit]
Cc1cc(=O)n2[nH]c(C)c(-c3ccc(Cl)cc3)c2n1 | inconclusive: 39.8 µM [inhibitor, single point]
COc1ccc(N(C(=O)c2ccccc2C)S(=O)(=O)c2cccs2)cc1 | inactive
CCOC(=O)C1CCCN(C2CC(=O)N(c3ccc(N4C(=O)CC(N5CCCC(C(=O)OCC)C5)C4=O)cc3)C2=O)C1 (stereo unspecified) | inactive
Cc1ccccc1Cn1ccc(-c2ccc(Cl)cc2)c(C#N)c1=O | inconclusive: 12.6 µM [inhibitor, partial curve]
